This is an account of results in publication PMC4336329 (PLoS ONE, 2015).

Molecules are shown by their SMILES. The whole screen tested about 310,000 compounds, of which about 14,000 (4.5%) showed an effect of 50% or more. The effect is printed as a negative number. The list shows a part of the results.
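Further: peak tail current of the secondary pulse compared with the same well before compound.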

For the experiment, the target named is human ether-à-go-go-related gene (hERG) potassium channel (human, UniProt Q12809). Put plainly: primary screen, population patch clamp on CHO cells stably expressing hERG.
Chain of human ether-à-go-go-related gene (hERG) potassium channel (Q12809 whole entry, looked up): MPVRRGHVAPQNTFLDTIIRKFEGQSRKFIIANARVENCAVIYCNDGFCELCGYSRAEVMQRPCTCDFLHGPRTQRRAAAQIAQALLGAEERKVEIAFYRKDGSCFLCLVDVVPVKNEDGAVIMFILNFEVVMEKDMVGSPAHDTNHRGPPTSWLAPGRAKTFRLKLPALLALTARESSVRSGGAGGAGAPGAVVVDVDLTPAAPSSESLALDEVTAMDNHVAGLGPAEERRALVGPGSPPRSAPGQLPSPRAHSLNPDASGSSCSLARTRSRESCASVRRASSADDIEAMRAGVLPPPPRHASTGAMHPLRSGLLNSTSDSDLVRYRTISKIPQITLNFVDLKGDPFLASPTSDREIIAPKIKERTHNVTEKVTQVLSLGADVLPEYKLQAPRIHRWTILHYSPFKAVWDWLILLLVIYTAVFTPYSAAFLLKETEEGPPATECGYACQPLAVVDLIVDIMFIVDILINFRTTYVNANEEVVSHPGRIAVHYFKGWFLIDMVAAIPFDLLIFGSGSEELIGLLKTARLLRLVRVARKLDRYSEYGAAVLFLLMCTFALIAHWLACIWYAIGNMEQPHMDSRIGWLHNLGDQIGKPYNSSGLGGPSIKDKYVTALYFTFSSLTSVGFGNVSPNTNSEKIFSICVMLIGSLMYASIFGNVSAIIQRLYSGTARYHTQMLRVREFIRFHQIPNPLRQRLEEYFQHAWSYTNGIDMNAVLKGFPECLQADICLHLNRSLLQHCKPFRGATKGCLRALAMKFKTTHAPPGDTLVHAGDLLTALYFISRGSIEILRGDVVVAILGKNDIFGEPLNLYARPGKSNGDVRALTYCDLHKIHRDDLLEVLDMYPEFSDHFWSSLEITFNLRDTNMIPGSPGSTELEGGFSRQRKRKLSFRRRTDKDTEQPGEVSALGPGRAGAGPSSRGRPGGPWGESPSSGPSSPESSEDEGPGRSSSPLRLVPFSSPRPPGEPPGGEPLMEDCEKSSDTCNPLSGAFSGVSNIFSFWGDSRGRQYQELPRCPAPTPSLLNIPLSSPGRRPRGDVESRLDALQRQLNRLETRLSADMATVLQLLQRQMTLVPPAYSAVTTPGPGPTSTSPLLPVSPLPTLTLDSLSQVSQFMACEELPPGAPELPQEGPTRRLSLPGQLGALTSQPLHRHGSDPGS
As for `O=C(CCC1N=C2c3ccccc3N=C(SCc3ccc(F)cc3)N2C1=O)NCc1ccco1` (centres unmarked), the “hERG current change (%, negative = inhibition) at 10uM” value is -70.9%.
The value for `Cc1csc(N2CCCC2c2nc3cc(C(F)(F)F)ccc3n2CCOCCO)n1` (centres unmarked) was -69.1%; that for `C=CCn1c(C)cc(-c2csc(NC(=O)C3=COCCO3)n2)c1C` was 7.97%.
The same measure for `COC(=O)c1ccccc1-c1c2ccc(=[NH2+])cc-2oc2cc(N)ccc12.O.[Cl-]`: -31.2%.
The same measure for `CCCc1cc(=O)oc2cc(OCc3ccc(C(=O)O)o3)ccc12`: 23.1%; for `O=c1oc(-c2ccccc2)nc2ccsc12`: -3.61%.
For the molecule `COc1cccc(NC(=S)NC(=O)/C=C/c2ccco2)c1`, the “hERG current change (%, negative = inhibition) at 10uM” value came to 4.53%.
The value for `FC(F)(F)c1cccc(Cc2noc(CN(Cc3ccccn3)CC3CCCO3)n2)c1` (centres unmarked) was -43.3%; that for `CCOC(=O)c1cnc(-c2ccccc2)nc1-c1ccccc1` was 7.13%; that for `Nc1nnnn1CC(=O)N/N=C/C=C/c1ccccc1` was 16.1%.
The value for `CC1(C)Cc2ccccc2-c2nnc(-c3cccc(O)c3)n21` was 17.4%.
The same measure for `CC(C)(C)n1nnnc1C(c1cccs1)N(Cc1cccnc1)CC1CCCO1` (centres unmarked): -14%.
Regarding `Cc1ccc(C(=O)N2CCN(c3ccc(NC(=O)c4cccs4)cc3)CC2)cc1`, the “hERG current change (%, negative = inhibition) at 10uM” value is listed as -47.6%.
The value for `CSc1nnc(C2CCCN(CC(=O)Nc3ccccc3N3CCOCC3)C2)n1C(C)C` (centres unmarked) was -27.5%; that for `O=C(Nc1ccc(Cl)cc1)/C(=C1\CCCN1)[N+](=O)[O-]` was 8.12%.
For the molecule `Cc1csc(CN(C)C(=O)CC2C(=O)NCCN2CC(C)(C)C)n1` (centres unmarked), the “hERG current change (%, negative = inhibition) at 10uM” value turned out to be 5.5%.
The value for `O=C(c1cnc2n(c1=O)CCS2)N(c1ccccc1)C1CCCCC1` was 7.87%; that for `Cc1cc(NC(=O)c2cc3n(n2)C(C(F)(F)F)CC(c2ccco2)N3)n(-c2ccccc2)n1` (centres unmarked) was -1.73%.
The same measure for `CCOc1ccc(NC(=O)C2CCN(C(=O)NCc3ccccc3)CC2)cc1`: -8.54%; for `O=C(NCC1CCCO1)c1c(O)c2ccccc2[nH]c1=O` (centres unmarked): -0.367%.
The value for `CN1CCCN(C(=O)c2cccc(Br)c2)CC1` was 16.4%; that for `CCc1ccc(N(C(=O)C(F)(F)F)C(C(=O)NC2CCCCC2)c2ccncc2)cc1` (centres unmarked) was 16.3%; that for `CSCC[C@H](NS(=O)(=O)c1ccc(C)cc1)C(=O)N1CCC(C(=O)N[C@@H](Cc2ccc(O)cc2)C(=O)O)CC1` was 15.2%.
`COc1ccc(NC(=O)/C=C/c2c(Cl)nc3ccccn23)cc1`: the “hERG current change (%, negative = inhibition) at 10uM” value was -33.7%.
`Cc1c(C(=O)N2c3ccccc3CC2C)oc2ccccc12` (centres unmarked): the “hERG current change (%, negative = inhibition) at 10uM” value was determined as 17.3%.
The same measure for `Nc1cc2c(cc1[N+](=O)[O-])OCCO2`: 5.64%.
In the case of `CN(C)CCNC(=O)c1ccc2c(=O)n(Cc3ccc(Cl)cc3)c(=S)[nH]c2c1`, the “hERG current change (%, negative = inhibition) at 10uM” value is listed as -27.8%.
The value for `COc1ccc(NC(=O)CN(C)C(=O)c2cc(-c3ccc(C)o3)nc3ccccc23)cc1` was -37.7%; that for `COc1ccc(OCC(=O)Nc2ccc3nc(C)sc3c2)cc1` was 17.9%; that for `Cn1c(=O)[nH]c(=O)c2c1nc(N1CCOCC1)n2CCCSc1ncccn1` was -6.88%.
With `CCOc1ccc(NC(=O)C(CC(=O)O)Cc2ccc(Br)cc2)cc1` (centres unmarked), the “hERG current change (%, negative = inhibition) at 10uM” value is listed as 11.1%.
`COc1ccc(CNC(=O)C2=CCN(S(=O)(=O)c3ccc(C)cc3)CC2)cc1`: the “hERG current change (%, negative = inhibition) at 10uM” value is reported as -34.2%.
The same measure for `CC(C)(C)c1ccc(C(=O)NNC(=O)c2ccccc2Br)cc1`: 2.52%; for `Cn1cc(S(=O)(=O)Nc2ccc3c(c2)OCCO3)cn1`: 12.9%; for `Cc1ccc(NCCC(=O)c2ccc(Br)cc2)cc1`: 0.444%.
The same measure for `CCC(=O)N(CCc1ccc(OC)c(OC)c1)Cc1cc2ccc(C)cc2n2nnnc12`: -76.8%; for `COc1ccccc1N1CCN(CC(O)COc2cccc3ccccc23)CC1.Cl.O` (centres unmarked): -61%; for `Cc1ccc(-c2nn(-c3ccccc3)cc2C(=O)N2CCOCC2)cc1C`: -11.4%.
With `CCOC(=O)c1cnc2c(C#N)c(C)nn2c1-c1ccccc1`, the “hERG current change (%, negative = inhibition) at 10uM” value was -3.03%.
The value for `CCCc1ccc(-c2cc(C(=O)NCCc3ccc(S(N)(=O)=O)cc3)c3ccccc3n2)cc1` was 13.2%.
The value for `COc1ccc(CCNC(=O)c2cc(S(=O)(=O)N(C)C)ccc2N2CCCC2)cc1OC` was 5.99%.
Take `Br.CCC(C)N1Cc2ccccc2C1=N` (centres unmarked): the “hERG current change (%, negative = inhibition) at 10uM” value is given as 2.75%.
On to `COc1cc(OC)cc(C(=O)Nc2cccc(NC(C)=O)c2)c1`, for which the “hERG current change (%, negative = inhibition) at 10uM” value is listed as -1.56%.
Regarding `Cc1cccc(NC(=O)c2cc3n(n2)C(C(F)(F)F)CC(c2ccc4c(c2)OCO4)N3)c1` (centres unmarked), the “hERG current change (%, negative = inhibition) at 10uM” value turned out to be 0.0954%.
The value for `O=C(Nc1n[nH]c(=S)s1)c1ccc2ccccc2c1` was 27.1%; that for `Cc1onc(-c2ccccc2)c1C(=O)Nc1ccc(OC(C)C)cc1` was -18.5%; that for `COc1ccc(S(=O)(=O)CCc2nnc(NC(=O)c3cccs3)s2)cc1` was 8.55%.
The same measure for `COc1cccc(C(=O)OCC(=O)Nc2ccccc2N2CCOCC2)c1`: -25%.
In the case of `CSc1nc2ccccc2cc1/C=C(\C#N)c1cccc(C)c1`, the “hERG current change (%, negative = inhibition) at 10uM” value is 20.4%.
The value for `Cc1c(C)c2ccc(OCC(=O)NCc3ccccn3)cc2oc1=O` was 4.07%; that for `COc1ccc(C(=O)NCC(=O)OCC(=O)Nc2cc(OC)ccc2OC)cc1` was -1.67%; that for `O=C(NC(NC1CCS(=O)(=O)C1)C(Cl)(Cl)Cl)c1ccc(Br)cc1` (centres unmarked) was -21.3%.
The value for `COc1ccc(-c2cn[nH]c2C)cc1` was 13%; that for `O=C(N/N=C/C(c1ccccc1)c1ccccc1)c1ccccc1F` was 18.9%; that for `O=C(CCn1c(=O)c2ccccc2n(CC(=O)NC2CCCC2)c1=O)NCCc1ccc(Cl)cc1` was 9.26%.
The same measure for `CCC(=O)NC(=S)Nc1ccc(NC(=O)c2ccc(OC)cc2)cc1`: 7.69%; for `CCC(=O)NCCc1nc2ccccc2n1CC(=O)c1ccccc1`: 3.8%; for `Cc1ccccc1-n1c(CNc2ccccc2)nc2ccccc2c1=O`: 11.7%.
Consider `O=C(CCCC(=O)N1CCN(c2ccc([N+](=O)[O-])cc2)CC1)c1ccccc1`, for which the “hERG current change (%, negative = inhibition) at 10uM” value is given as -72%.
Regarding `CC(C)(C)c1ccc(COC(=O)CN2C(=O)NC3(CCCC3)C2=O)cc1`, the “hERG current change (%, negative = inhibition) at 10uM” value was -29.9%.
The same measure for `O=C(c1ccc2oc(CCc3ccccc3)nc2c1)N1CCC(O)CC1`: 14.9%; for `CN(C)S(=O)(=O)c1ccc(C(=O)NC2CCCc3ccccc32)cc1` (centres unmarked): 3.09%.
For `COc1ccc(CCNC(=O)C(C)n2nc(C)c3c(C)n(-c4ccc(C)cc4)nc3c2=O)c(OC)c1` (centres unmarked), the “hERG current change (%, negative = inhibition) at 10uM” value was -58.6%.
`COc1ccc(/C=N/NC(=O)Nc2cccc3nsnc23)c(OC)c1`: the “hERG current change (%, negative = inhibition) at 10uM” value is listed as 6.08%.
The value for `CC(C)(C)NC(=O)c1cc(NC(=O)c2ccco2)cc(NC(=O)c2ccco2)c1` was -25.6%; that for `CC(=O)Nc1ccc(S(=O)(=O)N(C#N)c2nc(C)cc(C)n2)cc1` was 16.6%; that for `CC(C)n1cc(CN2CCC(n3nccc3NC(=O)C3CCCC3)CC2)cn1` was -1.92%.
On to `COC(=O)c1cccc(NC(=O)Nc2ccccc2OC)c1`, for which the “hERG current change (%, negative = inhibition) at 10uM” value is given as -5.2%.
Regarding `CC(C)=CCN1CCNC(=O)C1CC(=O)NCc1nc(C)c(C)s1` (centres unmarked), the “hERG current change (%, negative = inhibition) at 10uM” value came to 11.2%.
The same measure for `O=C(Nc1nnc(CCc2ccccc2)s1)c1ccccc1F`: 15.1%; for `Cc1cccn2c(=O)c(C(=O)NC3CCCCC3C)c(O)nc12` (centres unmarked): -16.8%; for `CCCNC(=O)CSc1nc2ccccc2c(=O)n1CCC`: 3.3%.
With `CCC(=O)N1CCc2cc(S(=O)(=O)NCCN3CCC(C)CC3)ccc21`, the “hERG current change (%, negative = inhibition) at 10uM” value is given as -3.47%.
As for `Cc1ccc2oc(C(=O)NCCC3CCCCO3)c(C)c2c1` (centres unmarked), the “hERG current change (%, negative = inhibition) at 10uM” value is recorded as -11.5%.
The value for `CCCCn1c(-c2nn(C)c(C)c2Cl)n[nH]c1=S` was 2.17%; that for `CC(C)(C)CC(=O)Nc1ccccc1N1CCN(c2ccc(F)cc2)CC1` was 14.7%; that for `N#C/C(=C(/O)COC(=O)CCCNC(=O)c1ccc(Cl)cc1)c1nc2ccccc2[nH]1` was 8.97%.
Consider `COc1cc(-c2nc(-c3ccc(Br)o3)no2)cc(OC)c1OC`, for which the “hERG current change (%, negative = inhibition) at 10uM” value worked out at 16.7%.
In the case of `CCOC(=O)C[C@H]1c2ccc(C(F)(F)F)cc2S(=O)(=O)N1c1cccc(OC)c1`, the “hERG current change (%, negative = inhibition) at 10uM” value is given as -30.8%.
The same measure for `CCCCc1c(C)nc(Nc2ccc(OC)cc2)[nH]c1=O`: 1.33%; for `Cc1cc(C(F)(F)F)nn1CC(=O)NCc1cccs1`: 19.1%; for `CCc1cccc(NC(=O)COC(=O)/C=C/c2cccs2)c1`: -9.41%.
With `COc1ccc(OC)c(N2CC(O)=C(c3nc4ccccc4s3)C2=N)c1`, the “hERG current change (%, negative = inhibition) at 10uM” value was -21.3%.
The same measure for `Cc1nnc(NC(=O)c2ccc(Br)cc2)s1`: 6.01%; for `COc1cc(N=C(N)N=C(N)N)cc(OC)c1`: 33.9%; for `Cc1ccc2c(N)[nH]nc2n1`: 13%.
For `O=C(CNC(=O)c1cccs1)N/N=C/c1ccco1`, the “hERG current change (%, negative = inhibition) at 10uM” value is listed as 22.4%.
The same measure for `Cc1ccc2c(c1)N(CC(=O)NC(C)CCc1ccccc1)C(=O)c1cccnc1O2` (centres unmarked): -36%; for `CCOc1ccc(-n2c(Cc3cc(=O)[nH]c(=O)[nH]3)nnc2SCC(=O)OC)cc1`: 0.603%.
